# Experimental data taken from the RNAGym collection of RNA variant scans (doi:10.7554/elife.90254).
# The source gives no read counts; variants with many changes may rest on few reads.
# B1: LINE1-mini (parent)
# chain: GGCAGAGCUCAACACAGCGUGGCAAAGUGGCUGUGGCUAGACUGCC
# Variants of: B1
# Assay: self-cleavage, relative activity (ratio to wild type); higher = more cleavage; in vitro, sequencing; the parent is a self-cleaving ribozyme
row,Variant,self-cleavage
1,AGCAGAGCUCAACAAAGCGUGGCAAAGUGGCUGUGGCUAGCCUGCC [G1A C15A A41C],0.14
2,AGCAGAGCUCAACACAGCGUGGCAAAGUGGGUGUGGCUAUACUGCC [G1A C31G G40U],0.05
3,AGCAGAGCUAAACACAGCGUGGCAAAGUGGCUGCGGCUAGACUGCC [G1A C10A U34C],0
4,AACAGAGCUUAACACAGCGUGGCAAAGUGGCUGUGGCUAGACUGCC [G1A G2A C10U],0.19
5,AACAGAGCGCAACACAGAGUGGCAAAGUGGCUGUGGCUAGACUGCC [G1A G2A U9G C18A],0.87
6,AGCAGAGCUCAACACAGAGUGGCAAAGUGGCUGUGGCUAGACUGCU [G1A C18A C46U],1.83
7,AGCAGAGCUUAACACAGCGUGGCAAAGUGGCUUUGGCUAGACUGCC [G1A C10U G33U],0.12
8,AGCAGAGCUCAACACAGCGUGGAAAAGUGGCUGUGGCCAGACUGCC [G1A C23A U38C],1.03
9,AGCAGAGCUCAACAAAGCGUGACAAAGUGGCUGUGGCUAGACUGCC [G1A C15A G22A],0.15
10,AGCAGAGCUCAAGACAUCGUGGCAAAGUGGCUGUGGCUAGACUGCC [G1A C13G G17U],0.02
11,AGCAGAGCUCAACACAGCGUGGAAAAGUGGCUGUGGCUAGACGGCC [G1A C23A U43G],0
12,AGCAGAGCUCAACAGAUCGUGGCAAAGUGGCUGUGGCUAGACGGCC [G1A C15G G17U U43G],0.12
13,AACAGAGCUCGCCACACCGUGACAAAGUUGCUGUGGCUAGACUGCC [G1A G2A A11G A12C G17C G22A G29U],0.02
14,AGCAGAGCUCAACACAGCGUGGGGGAGUGGCUGUGGCUAGACUGCC [G1A C23G A24G A25G],0.06
15,ACCCGAGCUCAACACACCGUGGCAAAGUGGCUGUGGCUAGACUGCC [G1A G2C A4C G17C],0.08
16,AACAGAGCUCAACUAAGCUUGGCAAAGUGGCUGUGGCUAGACUGCC [G1A G2A A14U C15A G19U],0.3
17,AGCAGAGCUCAAGACAGCGUGGCAAAGUGGCUGUGGCUAGACUCCC [G1A C13G G44C],0.06
18,AGCAGAGCUUAACACAGCGUGGCAAAGCGGCUGUGGCUAGACUGCC [G1A C10U U28C],0.32
19,AGCAGAGCUUAACACAGCGUGGCAAAGAGGCUGUGGCUAGACUGCC [G1A C10U U28A],0.34

row,Variant,self-cleavage
1,AGCAGAGCUCAACAGAGCGUGGCAAAGUGGGUGUGGCUAGACUGCC [G1A C15G C31G],0.02
2,AGCAGAGCUUAACACAGGGUGGCAAAGUGGCUGUUGCUAGACUGCC [G1A C10U C18G G35U],0.03
3,AGCAGAGCUCAACACAGAGUCGCAAAGUGGCUGUCGCUAGACUGCC [G1A C18A G21C G35C],0
4,AGCAGAGCUCAACAGAGCGUGGCAAAGUGGCUGUGGCUAGCGUGCC [G1A C15G A41C C42G],0.06
5,AGCAGAGCUCAACAAAGCGUGGCAAAGUGGCUGUGCCUAGACUGCC [G1A C15A G36C],0.1
6,AGCAGAGCUCAACAAAGCGUGGCAAAGAGGCAGUGUCUAGAUUGCC [G1A C15A U28A U32A G36U C42U],0.02
7,AGCAGAGCUCAACAAAGCUCGGCUAAGUGGCUGUAGCUAGACUGCA [G1A C15A G19U U20C A24U G35A C46A],0.01
8,AGCAGAGCUCAACACAGCGUGGUUCAGUGGCUGUGGCUAUACUGAC [G1A C23U A24U A25C G40U C45A],0.03
9,AGCAGAGCUUAACACAGAGUGGCAAAGUGGCUGUGGCUAGACUGCC [G1A C10U C18A],0.05
10,AACAGACCUCUACACAGUGUGGCAAAGUGGCUGUGGCUAGACUGCC [G1A G2A G7C A11U C18U],0.13
11,AACAGAGCUCAACACAGCGUGGCAAAGUGGCCGUGGCUAGACUGCC [G1A G2A U32C],0.37
12,AGCAGAGCUGAACACGGCGUGGCACAAUGGCUGUGGCUAGACUGCC [G1A C10G A16G A25C G27A],0.47
13,AGCAGAGCUCAACACAGGGUGGCACAGAGGCUGUGGCUAGACAGCC [G1A C18G A25C U28A U43A],0.05
14,AGCAGAGCUCAACAAAGCGUGGCAAAGUGGCUGUGGCUAGAUUGCC [G1A C15A C42U],0.05
15,AGCAGAGCUCAACAUAGCCUGGCAAAGUGGCUGUGGCUAGACUUCC [G1A C15U G19C G44U],0.18
16,AGCAGAGCUCAAAACAGCGUGGCAAGGUGGCUGUGGCUAGACUGCC [G1A C13A A26G],0.03
17,AGCAGAGCUCAAAACAGCGUGGCAAAGUGGCUGUGGCUAUACUGCC [G1A C13A G40U],0.07
18,AGCAGAGCUCAAAAUAGCGUUGCAAAGAGGCUGUGGAUAGACUGCC [G1A C13A C15U G21U U28A C37A],0
19,AGCAGAGCUCAACAUGGCGUGGCAAAGUGGCUGUGGCUAGACUGCC [G1A C15U A16G],0.65

row,Variant,self-cleavage
1,AACAGAGCUCAACACAGGGUGCCAAAGUGGCUGUGGCUAGACUGCC [G1A G2A C18G G22C],0.32
2,AGCAGAGCUCAACAAGGCGUGGCAAAGUGGCUGUGGCUAGAGUGCC [G1A C15A A16G C42G],0.01
3,AGCAGAGCUCAACACAGUGUGGAAAAGUGGCUGUGGCUAGACUGCC [G1A C18U C23A],0.64
4,AGCAGAGCUCAACACAGAGUGGCAGAGUGGCUGUGUCUAGACUGCC [G1A C18A A25G G36U],0.03
5,AGCAGAGCUCAACAUAGCAUGGCAAAUUGGCUGUGGCUAGACUGCC [G1A C15U G19A G27U],0.14
6,AGCAGAGCUCAACAUAGCGUCGCAAAGUGGCUGUGGCUAGACUGCC [G1A C15U G21C],0.8
7,AGCAGAGCUCAAUACAGCGUCGAAAGGGGGCUGUGGCUAGACUGCC [G1A C13U G21C C23A A26G U28G],0.22
8,AGCAGAGCUCAACACAGCGUGGCAAAGUGGGGGGGGCUAGACUGCC [G1A C31G U32G U34G],0.02
9,AGCAGAGCUAAACACAGCGUGGCAAAGUGGCUGUGGCCAGCCUGCC [G1A C10A U38C A41C],0
10,AACAGAGCGAAACACAGCGUGGUAAAGUGGCUGUGGCUAGACUGCC [G1A G2A U9G C10A C23U],0.06
11,AGCAGAGCUCAACAAAGCGUGGCAAAGUGGCUUUGGGUAGACUGCC [G1A C15A G33U C37G],0.01
12,AACAGAGCCCAACACAUCGAGGCAAAGUGGCUGUAGCUAGACUUCC [G1A G2A U9C G17U U20A G35A G44U],0.01
13,AGCAGAGCUCAAGACAGCGUGGCUAAGUGGCUGUGGCUAGACUGCC [G1A C13G A24U],0.07
14,AGCAGAGCUCAAUACAGCGGGGCAAAGUGGCUGUAGCUAGACUGCC [G1A C13U U20G G35A],0.17
15,AGCAGAGCUCAACACAGCGUGGCAAAGUGGGUGGGGCUAGACUGCC [G1A C31G U34G],0.03
16,AGCAGAGCUCAACACAGCGUGGCAAAGUGGCUGUGGAUCGACUGCC [G1A C37A A39C],0.09
17,AGCAGAGCUCAACACAGUGUAGCAAAGUGGCUGUGGCUUGAGUGCC [G1A C18U G21A A39U C42G],0
18,AACAGAGCUCAACACAGCAUGGCAAAUUGGCUGUGGCUAGACUGCC [G1A G2A G19A G27U],2.94
